This is one part of the list. At the low end of the ranking the order means little.

Binding signal data for 94 sequences are collected here from publication PMC6212790.

In the experiment the target is T1, GST-Rok (full length) (UniProt O34857).
T1 sequence: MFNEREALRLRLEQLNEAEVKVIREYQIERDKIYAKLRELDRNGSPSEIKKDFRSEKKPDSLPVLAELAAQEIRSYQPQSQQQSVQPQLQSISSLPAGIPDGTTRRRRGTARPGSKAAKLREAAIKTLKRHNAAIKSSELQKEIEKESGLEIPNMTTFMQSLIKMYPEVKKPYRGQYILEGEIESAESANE
The experiment in a line: protein binding microarray.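 Further: rank score from −0.5 (least bound) to 0.5 (best bound).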 The conditions noted are these: Rok is a gene silencer of Bacillus subtilis; high values mean tight binding; most listed sequences are background and not binding sites; double strand, one strand shown.
Turning to CATCTTTC, the binding signal worked out at 0.0945 E-score. CCGGCTCA showed a binding signal of -0.335 E-score. As to GCTGAAGA, the binding signal was -0.128 E-score.

In turn, AAATTCCC had a binding signal of 0.0369 E-score. Consider ATTCAGGC, for which the binding signal was -0.0859 E-score. CATTGGGA: the binding signal is -0.0383 E-score. The same measure for GTCTGATA: 0.178 E-score; for AGATATGG: 0.0717 E-score; for GCCTTCAC: 0.0205 E-score. Take AGACGTCC: the binding signal was -0.0839 E-score. On to CGACGTTC, for which the binding signal is -0.11 E-score. The same measure for GTTGAAGA: -0.112 E-score. ACCTCTCG: the binding signal was -0.166 E-score. The same measure for AACTCAGT: -0.0114 E-score; for AATCTAAG: 0.156 E-score. CAAATGAA displayed a binding signal of 0.175 E-score. The same measure for AGACATAT: 0.0317 E-score; for TCGTGTAA: 0.0386 E-score; for TAATCCGA: 0.113 E-score. Sequence CAGCTACA came in with a binding signal of 0.0906 E-score. For the sequence TGTAAGAA, the binding signal was 0.185 E-score.

With CCGGGCGC, the binding signal was -0.233 E-score. AGGTCCAA showed a binding signal of -0.255 E-score. The same measure for AATGCCAC: -0.0451 E-score; for TACAATGA: 0.113 E-score. The same measure for GCGATCGC: -0.215 E-score. The same measure for AGAGTGGG: -0.17 E-score. Take AGTTCACC: the binding signal was -0.00687 E-score.

TCTGTCAA: the binding signal is -0.21 E-score.

The sequence GGACGGCA showed a binding signal of -0.34 E-score. The same measure for ACTTGCAT: 0.0304 E-score; for CTGCTCAA: -0.11 E-score; for CATATAAA: 0.175 E-score.

GGGTTGTA: the binding signal is -0.0711 E-score. Regarding GTCGCGTA, the binding signal amounted to 0.198 E-score. AAAATTCG: the binding signal was found to be 0.123 E-score. In the case of CACCCTCG, the binding signal is -0.113 E-score. The same measure for GCATCCAA: 0.0302 E-score; for GGACCGAA: -0.113 E-score. CTTTCTTA showed a binding signal of 0.104 E-score. ACTAAACT came in with a binding signal of 0.291 E-score. In turn, GACCACTC came in with a binding signal of -0.158 E-score.

In the case of GTCTGTTA, the binding signal was found to be 0.0123 E-score. In turn, ATCACGTA gave a binding signal of 0.118 E-score. Sequence CATAGGTC registered a binding signal of -0.0596 E-score. ACTTAATA gave a binding signal of 0.217 E-score. As for CTAAAGGA, the binding signal was -0.191 E-score. Take GCGGTTTA: the binding signal is -0.035 E-score. The same measure for CAACGGTA: 0.259 E-score; for GAGGACTC: -0.171 E-score. With AGGCCCAA, the binding signal was -0.28 E-score. The same measure for AACTGGGA: -0.293 E-score; for CTTCATGC: 0.0306 E-score; for ACATAGAG: 0.00988 E-score.

CAATGAGC showed a binding signal of -0.187 E-score. Sequence ATGCGAAT came in with a binding signal of -0.052 E-score. As to GTATAATA, the binding signal was determined as 0.407 E-score. The same measure for ATAATTTC: 0.351 E-score. The same measure for AAGTACTC: 0.165 E-score; for ACGATTTG: -0.0383 E-score. The same measure for GAAGCGTC: -0.161 E-score. For the sequence CCTTTCGC, the binding signal is -0.199 E-score. Sequence AATAGGCT gave a binding signal of 0.0628 E-score. The same measure for CCGGATGA: -0.0393 E-score. The same measure for ACGGTGTG: -0.128 E-score. CGAATCGA: the binding signal was 0.0947 E-score. Sequence TTCCCCAA displayed a binding signal of -0.0604 E-score. In turn, CATGGGAG registered a binding signal of -0.291 E-score. Regarding CAAAGCAA, the binding signal was 0.116 E-score. Sequence CCGTGCAC returned a binding signal of -0.0815 E-score. The same measure for CTAAGGAG: -0.136 E-score.

Consider CGCGGACA, for which the binding signal was -0.0659 E-score. The same measure for GGAGAGCC: -0.38 E-score. CCGGAGTA returned a binding signal of -0.00491 E-score. On to CGCCGCCA, for which the binding signal was -0.311 E-score.

In turn, AAAGTTGT registered a binding signal of 0.0305 E-score.

As for AAGTCCTA, the binding signal is 0.0146 E-score.

The sequence ATCTCTTA gave a binding signal of -0.0024 E-score. Sequence ACAGCAAG gave a binding signal of -0.132 E-score.

The sequence CATCCGCC showed a binding signal of -0.226 E-score.

Sequence CGCGCCAG gave a binding signal of -0.217 E-score. Sequence AAGGGGAC registered a binding signal of -0.318 E-score.

GTTGGTTA displayed a binding signal of 0.26 E-score. AAAAGCTC registered a binding signal of -0.0258 E-score.

The sequence GAGGATAA gave a binding signal of 0.11 E-score. Sequence CGCGATTC yielded a binding signal of 0.126 E-score. The same measure for CACCCAGG: -0.361 E-score; for CACCGCGG: -0.308 E-score; for ATGCAGTG: 0.0262 E-score. AAAATGAC yielded a binding signal of -0.0564 E-score. The same measure for CTGGACCA: -0.249 E-score; for GCTGTCGA: -0.0234 E-score; for ATAGTTCC: 0.135 E-score. As for AGAGTGAC, the binding signal is -0.0819 E-score.
